The values that follow come from ChEMBL document CHEMBL4888484, “Replenishing the malaria drug discovery pipeline: Screening and hit evaluation of the MMV Hit Generation Library 1 (HGL1) against asexual blood stage Plasmodium falciparum ,using a nano luciferase reporter read-out” (2022).

The whole screen tested about 150,000 compounds, of which about 540 (0.36%) showed an effect of 50% or more. Some of the results follow.

The test has as its system Plasmodium falciparum. Nature of the test: Primary screen in NF54 nanoGlo assay, in single point, at 2uM, 72h; a lower Z score goes with more inhibition. Type of test: functional, Erythrocyte. The following applies: timepoint 72 hour.
In general, % Inhibition refers to the drop in the measured response relative to a control, in per cent. On to `CCN(CC)c1ccc(NC(=O)c2cnn(-c3ccc(Br)cc3)c2)c(C)c1`, for which the “% Inhibition” value was -10% and the Z score is on record as 1.66.

On to `O=C(c1c[nH]nc1-c1ccccc1)N1Cc2cnn(CCO)c2C1`, for which the “% Inhibition” value was -3% and the Z score is on record as 0.4.

Consider `Cn1nncc1C1(O)CN(C(=O)c2ccnn2CC(F)(F)F)C1`, for which the “% Inhibition” value is recorded as 0% and the Z score is given as 0.03.

In the case of `COc1ccc2c(C)c(C(=O)N3C[C@H]4CC[C@@H](C3)[C@H]4N)oc2c1OC`, the “% Inhibition” value stood at 8% and the Z score was -1.04.

As for `Cc1ccc(NS(=O)(=O)c2c(C)sc(C)c2-c2cc(C)no2)cc1`, the “% Inhibition” value is given as -19% and the Z score amounted to 3.21.

For `N#CC1(c2nc3ccccc3s2)CC1`, the “% Inhibition” value is reported as -1% and the Z score is reported as 0.16.

As to `CCNC(=O)CN1C(=O)[C@@H]2CCCCN2c2ccc(C(=O)N3CCCCC3)cc21`, the “% Inhibition” value is listed as -8% and the Z score came out at 1.24.

`COCc1n[nH]c(-c2csc3c2CCCC3)n1`: the “% Inhibition” value is on record as -12% and the Z score stood at 1.68.

With `CCc1cnc(C)nc1-c1cccc(C(=O)N(CC)Cc2nc(C)no2)c1`, the “% Inhibition” value is reported as -21% and the Z score amounted to 1.84.

In the case of `COCCn1cc(Nc2ccccn2)cn1`, the “% Inhibition” value amounted to 11% and the Z score is reported as -1.92.

With `CC(C)N[C@H]1CCCN(C(=O)C(C)(C)Nc2ccccc2)C1`, the “% Inhibition” value is on record as -13% and the Z score was 1.76.

For the compound `O=c1c2c([nH]c3nc(NCc4ccccc4Cl)nn13)CCCC2`, the “% Inhibition” value is given as -13% and the Z score stood at 1.11.

In the case of `Clc1cnccc1NCc1ccccc1CN1CCCCC1`, the “% Inhibition” value is -7% and the Z score is listed as 0.92.

As for `Cn1ncc(N2CCC[C@H](CC(=O)Nc3ccc(F)cc3F)C2)cc1=O`, the “% Inhibition” value is on record as -1% and the Z score worked out at 0.11.

As to `C[C@@H](Cc1noc(-c2ccc3c(c2)N=S=N3)n1)N(C)C(=O)OC(C)(C)C`, the “% Inhibition” value is on record as -9% and the Z score is 1.22.

In the case of `CC(C)(C)OC(=O)NC1CCOC2(CCOC2)C1` (stereo not drawn), the “% Inhibition” value is -14% and the Z score amounted to 1.81.

Turning to `CN(C)c1ccc2c(c1)CN(C(=O)[C@@H]1COc3ccccc3O1)CCO2`, the “% Inhibition” value came out at 8% and the Z score was -1.6.

Regarding `Cn1nc(CNC(=O)Cc2cccs2)c2c1CCCC2`, the “% Inhibition” value is listed as -5% and the Z score is 1.01.

As to `CCn1nc(CO)c2c1CCN(C(=O)c1ccc3nccn3c1)C2`, the “% Inhibition” value is reported as -26% and the Z score amounted to 2.8.

As to `COc1cc([C@H]2CC(=O)Nc3cccc4c3c2cn4Cc2ccccc2)ccc1OCCc1ccc2c(c1)CCO2`, the “% Inhibition” value is reported as 0% and the Z score is listed as 0.07.

`Cc1ccc(Cn2c(=O)c(C(=O)NCC3CC3)nn(-c3ccc(Cl)cc3)c2=O)cc1`: the “% Inhibition” value is recorded as -10% and the Z score came out at 1.02.

Turning to `O=C(NC1C2CCc3ccccc3C21)N1CCOC(Cn2cccn2)C1` (stereo not drawn), the “% Inhibition” value is reported as -10% and the Z score came to 1.62.

Regarding `CC(C)C(C)(C)CNC(=O)NCCn1cccn1`, the “% Inhibition” value was 0% and the Z score is recorded as -0.05.

With `Cc1nc(C)c(CNC(=O)Nc2ccc(C(C)(C)C#N)cc2)s1`, the “% Inhibition” value was -7% and the Z score is 0.8.
